Test results reported in the RNAGym collection of RNA variant scans (doi:10.7554/elife.90254).
Read counts are not given, so values of variants with three or more changes are uncertain.

B1: LINE1-full (parent)
chain: UACGUAGGUGGUUUUCCCCUGAUAGUGCUAAGGGGGCCUGGAAGUUUGGACUGGGCAGAGCUCAACACAGCGUGGCAAAGUGGCUGUGGCUAGACUGCCUCUCUGGAUUCCUCGUCACUCAGCAGGGCAUCUCUGAGAGAAAUGCC

Variants of: B1
Assay: self-cleavage, relative activity (ratio to wild type); higher = more cleavage; in vitro, sequencing; the parent is a self-cleaving ribozyme

Row | Variant | self-cleavage
1 | U14C U47G U115A U134A | 1.51
2 | U39A U46A C110U A136G | 1.19
3 | A6G U102A A117G | 1.58
4 | U39C A59G A67U A78G | 0
5 | G27A A65G U91C | 0
6 | U12C U47A U87C A121G | 0.3
7 | G35U U62C U85A A121G U134C | 0.04
8 | A30G A50U U85C A124U | 0.24
9 | A65G U104C A140G A142G | 0
10 | A22G A64G A79G | 0
11 | U15C U29C A121G A141G | 0.54
12 | A24G A50G U102C | 0
13 | A67G A79G C101U | 0.48
14 | U5C A42U U143C | 0.77
15 | U5A U91C U100A | 0.37
16 | A43C U45A U46C U96A | 0.28
17 | C66A A69G U73A U134A | 0.06
18 | U62A U130A C146U | 0.04
19 | U13C G105A U143C | 1.05
20 | U12C U132A A142C | 1.23
21 | A30G G55A A129G | 1.22
22 | U5C C16U U115A | 0.33
23 | U12G A67G U134A | 0.54
24 | C19U A50U A67G | 0.18

Row | Variant | self-cleavage
25 | U15C C98G C116U | 0.05
26 | A6G C28A U109C U134A | 0
27 | U1A G72A U73A | 2.78
28 | U13C G34A A142G | 1
29 | A67U A78G A136G A140G | 0.08
30 | U62C U115C A140G | 0.08
31 | G33A A138G A141G | 1.57
32 | G36A A57G A59U U62C U73A U81A | 0.02
33 | U9A U45C A78G U112C A136G A142U | 1.31
34 | U9C U29C A141G | 2.3
35 | A43U U112C A117G A124G | 0
36 | U12C A42G A59U U109C U112A A129G | 2.12
37 | G83A U108C U109C A140U | 1.25
38 | U14C U47A A141G | 0.64
39 | U81C U104A U130C | 1.6
40 | U29C U47C G54U A117U | 1.28
41 | U5C A24U G75A U134C | 1.67
42 | U9C A69G A78G | 0.51
43 | A6G U12C G74A A79U U100C | 1
44 | U1C U13C U39A A138G | 0.92
45 | U62C A94G U104C | 0
46 | U23A U108C A124G U130C | 0
47 | G10A A30U A79G | 1.6
48 | G4C A31U U85A | 0.18

Row | Variant | self-cleavage
49 | A42G U62C A77C | 0
50 | U1C A2G A42G A64G A77G U91A | 0
51 | G7U C19U U102C A107G | 1.02
52 | U9C U15C A117G | 0.9
53 | U5A U14C U85C A94G C113U A140G | 0.37
54 | G8A U102C U132A | 1.82
55 | G55A U62C A117G A138G | 0.04
56 | U39A A129G U132C | 1.3
57 | G55A C71U G89A U115A A141G | 0.02
58 | U29C A77G U85C | 0
59 | U15C U47C U85C G125U | 0.57
60 | A30U A79G U132C | 1.45
61 | A22U U104G A142G | 2.63
62 | G58A U102C A121U | 0.02
63 | U15A A31U G97C A142G | 0.17
64 | A2G A31G A43G U96A | 0.15
65 | U1C A50G A65U A67G | 0
66 | U14C G32A A78G A138U | 2.4
67 | A64U A140G A141G | 0.55
68 | U39A U109C U143C | 0.71
69 | U39C A69G A142U | 0.18
70 | U1C G34A U46A U52C A77G | 0.33
71 | U12A U112C U130A | 1.07
72 | U12C U13C A64C A65U A78G | 0

Row | Variant | self-cleavage
73 | G36A U104C A141U | 1.33
74 | U15C A31G U62C A79G A124U A138G | 0.24
75 | U12G A30G U91C U132C | 0
76 | A43G U108A A140G | 1.23
77 | U29C A43G A77C | 0.66
78 | A30G A57G U81A U130C | 0.71
79 | U26A U73G U96C U130A | 0
80 | A50G U62C U73A A140G | 0
81 | G7A A43G U87C | 0.48
82 | U23C A30C A50G U143C | 1.15
83 | U12C C101A U108C | 2.3
84 | U14C U23C U47C | 1.12
85 | A31U G33A U46C A69U U132C A140G | 0
86 | G32U U81C A124G A142G | 0.26
87 | U62C A65C U115C | 0
88 | A24G A67G U134A | 0.66
89 | U14C U115C U134C G144A | 1.5
90 | A31G U39A U85A | 0.21
91 | A22G A43G U102A | 0.78
92 | C63A A64C U81A U108A U132C | 0.05
93 | U39C A77G U115C | 1.84
94 | U20C A64U U96C U102C G144A | 0.4
95 | U12C U134A A140G | 0.38
96 | U14A G36C A43G U47C A59G U62C A121U A141G | 1.1

Row | Variant | self-cleavage
97 | A22G A43G U81A A136U | 1.4
98 | A65U U112C U130C | 0.23
99 | U14C G40C U81A | 2
100 | G7U U39C A140G | 1.2
101 | U85C A92U C116A | 0.09
102 | A79G G82A C113A | 1.48
103 | A50C G74C A140G | 1.24
104 | A50U A57G U132C | 0.1
105 | U47C U52A U104A | 1.53
106 | A57G A77C U81A U104C | 0.43
107 | C3U U39A U62C | 0.14
108 | U47C U96A U119C | 0.13
109 | A59G U85A U115C | 0.07
110 | U46C A57U A69U A79U C123A C133U | 0.02
111 | A50G C68U U119A | 0.04
112 | U39A U91C U115A U130C | 0.73
113 | C3A A57G U134A | 0.16
114 | U9G A78U A138G | 2.78
115 | A42G A57G A69U | 0.07
116 | U14C A43U U62A | 0.11
117 | U15C U26C U112A | 1.76
118 | U15C G35A A129U | 1.57
119 | A30U A42U A65G | 0
120 | U100C U143C C145U | 1.47

Row | Variant | self-cleavage
121 | A6G U12C U13C G36C G97C | 0.06
122 | G34A U62C U112C | 0.06
123 | C3A U45G C56U U119A | 0.21
124 | U14C A129G A140U | 1.86
125 | U15C U46A A50U | 0.76
126 | U20C C116U U119C A141G | 2.05
127 | A6U G11A A42U | 1.01
128 | U23A U109C U115C | 0.56
129 | A69U U96C A140G | 0.02
130 | G44A U102C C118U A138G | 1.57
131 | A42G A67U G82U U143A | 0.12
132 | A67C G114A A136G | 0.06
133 | U47G A50U A67G U132C | 0.2
134 | U15A U20C A31G A121G A129U | 0
135 | U85C A124G A140U | 0.16
136 | A2G G35A U46A A67G U104A U115C | 0.56
137 | A31G G49A U52C G60A | 0
138 | A31G A78G A94G C113A G114C | 0.2
139 | U85C U115A A117U A142G | 0.12
140 | A43U A77U A138G | 1.45
141 | U1A U81C U132A | 1.46
142 | G54U U109A U115C | 0.96
143 | U100C U112C U115A | 1.93
144 | A59U A92U U108C | 1.08

Row | Variant | self-cleavage
145 | U96A U112C A117U A142G | 0.07
146 | U45C A67G A77U U81C | 0
147 | U9C C38U G82A U119C A141G | 2.3
148 | G10A U62A U73C | 0
149 | A22G U132A A142G | 1.41
150 | A42U U73A C145U | 0.87
151 | U23C U46A U87A G127U A138G | 0.09
152 | U1C U9A A22U | 0.74
153 | G75A A94G U96C C118U | 0.04
154 | G11A U52A A67G | 0.36
155 | U9C U96C U112A U119C | 0
156 | U5A A69G G127A | 0.5
157 | U46C U62C U85C A121U | 0.33
158 | U12G A22U U45C | 1.24
159 | C63U U104C U115C | 0.64
160 | U12C C19A A94G U115C A140G | 0
161 | U12C U39A U87A A129G A142G | 0.27
162 | C3U U47A A121G | 1.11
163 | U46G C101U A140G | 1.6
164 | U14C A31U G36A | 0.61
165 | U12G U87A U112C | 0.34
166 | U47C A64G U73A A121U A124G | 0.36
167 | U20A U23A A129G | 1.39
